# Assay results: PubChem BioAssay AID488969 (Vanderbilt High Throughput Screening Facility, 2010)
# The full ranking holds about 110,000 compounds; the median of “z-score” is about -0.1, and the highest 2% start at about 2. The list shows a part of the results. Activity calls are given as the source filed them.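 Rule for the calls: active = z-score in the third read window above 3 or below -3; inactive = the rest.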
# Target: Metabotropic glutamate receptor 8 (Rattus norvegicus) (UniProt P70579)
# Experiment: rat mGluR8 modulators via GIRK flux, primary screen, cell-based, thallium flux, HTS (AID 488969)
# Conditions: HEK293 rat mGluR8, GIRK (G protein-gated inwardly rectifying potassium channel) thallium flux, FluoZin2; at 10 µM; stronger effect = higher value; submaximal glutamate (EC20) added with thallium
# Sequence of UniProt P70579 (P70579 whole entry, looked up): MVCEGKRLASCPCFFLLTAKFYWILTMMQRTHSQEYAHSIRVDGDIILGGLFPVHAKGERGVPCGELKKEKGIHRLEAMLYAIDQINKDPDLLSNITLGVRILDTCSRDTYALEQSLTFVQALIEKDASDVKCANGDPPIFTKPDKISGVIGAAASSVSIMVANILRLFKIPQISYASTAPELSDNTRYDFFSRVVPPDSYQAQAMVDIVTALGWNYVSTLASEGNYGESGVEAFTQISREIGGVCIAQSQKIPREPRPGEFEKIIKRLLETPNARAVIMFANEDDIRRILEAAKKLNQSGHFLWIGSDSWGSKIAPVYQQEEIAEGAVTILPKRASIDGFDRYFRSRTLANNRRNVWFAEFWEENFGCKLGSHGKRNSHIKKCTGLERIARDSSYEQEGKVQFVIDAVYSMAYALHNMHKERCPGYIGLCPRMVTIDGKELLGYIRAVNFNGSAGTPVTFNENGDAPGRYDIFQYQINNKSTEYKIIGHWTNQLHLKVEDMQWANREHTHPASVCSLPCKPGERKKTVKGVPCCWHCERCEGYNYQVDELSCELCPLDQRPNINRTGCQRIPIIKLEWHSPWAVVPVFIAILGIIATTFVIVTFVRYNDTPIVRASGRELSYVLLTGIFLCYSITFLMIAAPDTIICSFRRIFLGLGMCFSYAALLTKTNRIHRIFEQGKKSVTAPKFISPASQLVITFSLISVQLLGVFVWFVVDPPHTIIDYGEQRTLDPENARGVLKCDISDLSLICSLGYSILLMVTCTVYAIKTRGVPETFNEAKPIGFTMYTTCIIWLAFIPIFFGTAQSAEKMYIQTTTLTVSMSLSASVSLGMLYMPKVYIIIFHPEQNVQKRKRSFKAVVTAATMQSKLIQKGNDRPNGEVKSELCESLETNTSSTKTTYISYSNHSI
row,Structure (SMILES),z-score
1,O=C(NN1c2ccccc2CCc2ccccc21)c1ccccc1Br,-0.0618
2,O=C(Nc1ccc(N2CCOCC2)cc1N1CCOCC1)c1ccc([N+](=O)[O-])cc1,-0.957
3,CC(=O)N(C(C)=O)C1=C(C#N)C2(CCCCC2)Cc2ccccc21,-0.305
4,CC(CC(=O)Nc1nc2ccccc2[nH]1)c1ccccc1 (stereo not given),-0.0862
5,CCCCC(=O)Nc1cc(NC(=O)CCCC)cc(C(=O)O)c1,-0.119
6,Cc1cc(C(=O)NCCCC(=O)O)c(C)o1,-0.154
7,COc1ccc(C(C(=O)NC2CCCCC2)N(C(=O)CCl)c2ccc(Cl)cc2)cc1 (stereo not given),0.0468
8,NCCCCCc1nnc(SCc2ccc(Cl)cc2Cl)o1,2.74
9,Cc1ccc(NS(=O)(=O)c2ccccc2)c2c1CC(C)(C)O2,-0.955
10,Cc1cccc(C)c1N1CCN(S(=O)(=O)N2CCOCC2)CC1,-0.017
11,COc1cc(C(=O)N2CCN(S(=O)(=O)c3ccc(C)cc3)CC2)ccc1OCc1c(C)noc1C,-0.897
12,N#CN=C1SCCS1,0.264
13,O=C(Nc1nncs1)c1cccc(S(=O)(=O)N2CCCC2)c1,-0.0624
14,O=C(CCCCCCCC(=O)NCC1CCCO1)NCC1CCCO1 (stereo not given),0.434
15,COc1ccc(CCN2CC(O)=C(c3nc(C)cs3)C2=N)cc1OC,-0.00316
16,Cc1nn(-c2cc(N3CCOCC3)ccc2N)c(=O)c2ccccc12,-0.0334
17,C=CCOc1ccc(CNc2nccs2)cc1OCC,-0.313
18,N#CC1=C(N)NC(SCc2ccc(Cl)cc2)=C(C#N)C12CCCCC2,0.116
19,CC(C)(C)c1cc(C(=O)Nc2ccccc2)ccn1,-2.42
20,Cc1nn2c(NCCCN3CCOCC3)c3c(nc2c1-c1ccccc1)CCC3,-0.0116
21,CC(C)(C)NS(=O)(=O)c1ccc(CCC(=O)NCc2cccnc2)cc1,-0.0966
22,COCCn1c(=O)[nH]c2cc(C(=O)NCCN3CCN(c4ccc(OC)cc4)CC3)ccc2c1=O,0.553

row,Structure (SMILES),z-score
1,CCC(C)(C)NC(=O)C(c1ccccc1F)N(Cc1ccco1)C(=O)Cn1nnc2ccccc21 (stereo not given),-0.164
2,COc1ccccc1N(CC(=O)NC1CCCCC1)S(C)(=O)=O,0.923
3,O=[N+]([O-])c1ccc(-c2cn(-c3ccccc3)c(=S)[nH]2)cc1,-0.00967
4,Nc1c(C(=O)NCc2ccco2)sc2nc(N3CCOCC3)c3c(c12)CCCC3,-1.31
5,Cc1cc(C)c(S(=O)(=O)Nc2ccc(O)cc2)c(C)c1,-0.0972
6,COc1ccc(-c2nc(NC(=O)C3CC(=O)N(c4ccc5c(c4)OCCO5)C3)sc2C)cc1 (stereo not given),-0.283
7,CCCN(CC1CC1)C(=O)COc1ccccc1C(=O)NCc1ccccc1,-1.23
8,CC(C)CC1C(C#N)=C(N)Oc2n[nH]c(-c3ccccc3)c21 (stereo not given),-1.54
9,CCNc1nc(NC(C)C)nc(N(C#N)C(C)C(=O)N(C)C)n1 (stereo not given),-0.195
10,O=[N+]([O-])c1cc(/C=N/N2CCN(c3ccccc3)CC2)ccc1Cl,2.02
11,CC(C)CNC(=O)NC(=O)CSc1nc2ccccc2n1CC(C)C,-0.276
12,C=CCN(CC=C)C(=S)NC(=O)c1ccc(-c2ccccc2)cc1,active: 11.4
13,COc1ccc(Cn2nnnc2CN2CCc3ccccc3C2)cc1,-0.0372
14,Cc1ccccc1OCC(=O)Nc1cccc(NC(=O)c2ccco2)c1,-0.387
15,O=C(Nc1ccc([N+](=O)[O-])cn1)C1CCCCC1,-0.376
16,CCOc1ccc(S(=O)(=O)NCCSc2ccccc2)cc1,0.0941
17,COc1cccc(Nc2nc(-c3cccs3)nc3ccccc23)c1,-0.218
18,Cc1oc2cc3c(C(=O)N4CCN(c5ccccc5)CC4)c(C)oc3cc2c1C(=O)N1CCN(c2ccccc2)CC1,-0.413
19,C=CCNC(=O)c1ccc(CNS(=O)(=O)c2ccc(NC(C)=O)cc2)cc1,0.123
20,c1ccc(OCCOCCN2CCc3ccccc3C2)cc1,-0.0733
21,COc1cc(=O)[nH]c(=O)n1CC(=O)c1ccccc1,0.0941
22,CCOC(=O)NCc1cc(-c2nn(C)c(=O)c3ccccc23)ccc1C,-0.837

row,Structure (SMILES),z-score
1,COc1ccc(C(=O)NN(C)c2nc(-c3ccccc3)cc(C)c2S(C)(=O)=O)cc1,0.745
2,Cc1ccc(Cl)cc1N1CCN(Cc2cc3c(cc2O)CCC3)CC1,-0.148
3,O=c1c(-c2ccccc2)coc2c(CN3CCCC3)c(O)ccc12,-1.07
4,COC(=O)NCC(c1cccnc1)N1CCN(c2ccccc2OC)CC1 (stereo not given),-0.0564
5,Cc1cc(NC(=O)c2ccc3c(c2)C(=O)N(Cc2cccnc2)C3=O)no1,-0.479
6,COc1ccc(Cl)cc1S(=O)(=O)N1CCN(Cc2ccc3c(c2)OCO3)CC1,-0.056
7,COc1cccc(NC(=O)Cn2cnc3sc(C)c(S(=O)(=O)N4CCCCC4)c3c2=O)c1,-0.22
8,Cc1cccc(-n2ncc3c(N4CCc5ccccc54)ncnc32)c1,-0.17
9,CCCCCC(=O)Nc1nc2ccccc2[nH]1,0.0142
10,COC(=O)CC1C(=O)NCCN1C(=S)Nc1ccccc1 (stereo not given),-0.493
11,CCn1c2c(c3ccc(OC)cc31)CCCC2=O,-0.183
12,CCOc1ccc(-n2ccnc2SCC(=O)NCc2ccc3c(c2)OCO3)cc1,0.0523
13,N#Cc1nc(-c2ccc(OCc3ccccc3)cc2)oc1NCc1cccnc1,-0.671
14,COc1ccc2c(c1)OC13CCCCC1C2C(C(=O)c1ccccc1)C(=O)N3 (stereo not given),-0.256
15,CCC(=O)N/N=C(\C)CC(=O)Nc1ccc2ccccc2c1,-0.143
16,CCC1(C)OC(=O)N2CCc3c(C)[nH]c4c(C)ccc(c34)C21C (stereo not given),-0.262
17,CCOC(=O)c1cnn2c(C)cc(-c3ccccc3)nc12,2.74
18,COC(=O)CC1SC(=O)NC1=O (stereo not given),0.352
19,NS(=O)(=O)c1ccc(-n2nncc2C23CC4CC(CC(C4)C2)C3)cc1,0.359
20,COc1cc(NC(=O)c2cccs2)c(OC)cc1NC(=O)CCn1nnc2ccccc21,0.118
21,CCOC(=O)c1c(NC(=O)C2CCCO2)sc(C(=O)OC(C)(C)C)c1C (stereo not given),-0.101
22,COC(=O)c1ccc(NC(=O)C(=O)N2CCN(C(=S)NCCc3ccccc3)CC2)cc1,-0.154

row,Structure (SMILES),z-score
1,COc1ccc(-c2noc(-c3ccccc3Cl)n2)cc1OC,-0.738
2,CCN(CC)CCOC(=O)C1(c2ccc(OC)c(OC)c2)CCCC1,0.0243
3,O=C(Cn1nnc(-c2ccccc2)n1)N/N=C/c1cc([N+](=O)[O-])ccc1O,-0.78
4,Cc1ccc(C(=O)Nc2ccc(C)c(S(=O)(=O)Nc3ccccc3Cl)c2)s1,-1.64
5,O=C(Nc1nc2ccccc2s1)c1cc2c(s1)-c1ccccc1OC2,-0.161
6,Cc1ccccc1C(=O)Nc1cccc(C#N)c1,-0.261
7,CC(CN1CCCC(C(N)=O)C1)c1ccccc1 (stereo not given),-0.143
8,Cc1ccc(S(=O)(=O)N2CCN(S(=O)(=O)c3ccc4c(c3)OCCO4)CC2)cc1,-0.228
9,C/C(=C\C(=O)c1ccc(C)cc1)NCc1ccc(F)cc1,-0.367
10,CCN(CC(N)=O)S(=O)(=O)c1ccc(Br)cc1,-0.102
11,O=C(c1ccco1)N1CCN(Cc2cccnc2)CC1,-0.196
12,NC(=O)COc1ccc(C2c3c(oc4ccccc4c3=O)C(=O)N2CC2CCCO2)cc1 (stereo not given),-0.0945
13,CCn1c(CSc2ncccn2)nnc1SCC(=O)N1c2ccccc2CC1C (stereo not given),-0.185
14,CC(=O)Nc1cccc(C(=O)N/N=C/c2ccc(F)cc2)c1,-0.381
15,CCS(=O)(=O)n1nc(-c2ccccc2)nc1N,0.709
16,O=C(OCC(=O)N1CCc2ccccc21)C1=COCCO1,0.992
17,O=C(CSc1nnnn1-c1ccc2c(c1)OCO2)NCc1cccs1,0.848
18,CCc1nnc(NC(=O)CSc2nnc(-c3cccnc3)n2CCc2ccccc2)s1,0.167
19,CC(C)CNC(=S)NNC(=O)c1csc2ccccc12,-0.117
20,CCC(=O)c1ccc(OCC(O)Cn2cnc3ccccc32)cc1 (stereo not given),-0.947
21,COC(=O)c1ccc(C(=O)OC)c(-n2c(=O)c3ccccc3c3ccccc3c2=O)c1,0.0668
22,CC(C)=C(NC(=O)c1ccco1)C(=O)NCCc1nc2ccccc2[nH]1,-0.508

row,Structure (SMILES),z-score
1,Cc1cccc2cc(CN(Cc3ccc4c(c3)OCO4)Cc3nnnn3C3CCCC3)c(=O)[nH]c12,0.216
2,O=c1oc2ccccc2c(Nc2cccc(O)c2)c1[N+](=O)[O-],-0.379
3,O=C(O)c1ccccc1C(=O)c1cccs1,0.162
4,O=c1cc(O)n(-c2ccc(F)cc2)c(=S)[nH]1,0.024
5,S=C(Nc1ccc(Cl)cc1)NC1CCN(Cc2ccccc2)CC1,0.375
6,Cc1ccc(N2C(=O)SC(N(CC(=O)O)c3cccc(C)c3)C2=O)cc1 (stereo not given),0.138
7,CC1(C)CC(=O)C2=C(C1)N(Cc1cccnc1)C(=O)C2(NC(=O)c1cccnc1)C(F)(F)F (stereo not given),-0.224
8,COc1ccccc1OCC(O)Cn1c(=N)n(Cc2ccccc2)c2ccccc21 (stereo not given),0.691
9,COC(=O)C1=C(CSc2nc3c(cc2C#N)CN(C)CC3)OC(N)=C(C#N)C1c1ccc(F)cc1 (stereo not given),-0.097
10,CC(C)CNC(=O)CN(C1CCCCC1)S(=O)(=O)c1ccccc1,0.11
11,Cc1ccc(S(=O)(=O)NNc2ccccc2)c(C)c1,-0.0253
12,COc1ccc(NC(=O)Nc2ccc(Cc3ccncc3)cc2)cc1OC,-0.78
13,Cc1ccc2nc(C3CCCN(C(=S)Nc4ccccc4C)C3)[nH]c2c1 (stereo not given),-0.31
14,CC(C)OC(=O)c1c(-c2ccc(C(C)C)cc2)csc1NC(=O)C1CCCO1 (stereo not given),-0.358
15,COc1ccc(-c2cc(C(=O)N3CC4(C)CC3CC(C)(C)C4)no2)cc1 (stereo not given),-0.295
16,COc1ccc(-n2nnc3c(=O)n(CC(=O)N4CCC(C)CC4)cnc32)cc1,-0.0704
17,CCOC(=O)N1CCN(C(=O)C2CCN(S(=O)(=O)c3ccc(Br)s3)CC2)CC1,0.21
18,COc1cccc(OC)c1C(=O)Nc1ccc([N+](=O)[O-])cn1,-0.301
19,Cc1nc([N+](=O)[O-])cn1CC(=O)NCCCO,-0.109
20,CC(=O)c1ccc(NC(=O)CCn2c(=O)oc3ccccc32)cc1,-0.318
21,CCc1cc2c(=O)c(-c3cnn(-c4ccccc4)c3)c(C(F)(F)F)oc2c(CN(C)C)c1O,-0.335
22,Cc1ccc2nc(NC(=O)c3ccc4ncsc4c3)sc2c1,0.195
